Experimental data published in paper PMC6769691 (International Journal of Molecular Sciences, 2019).

Legend:
Conditions in all cases: both partners purified
[1] = target: T1, TNFR1 fused to the Fc portion of an IgG molecule (UniProt P19438 30-455); test: SPR; standard kinetics: NGR-hTNF or hTNF 0.6–83 nM injected in duplicates over TNFR1 and TNFR2 (Fc fusions on immobilized anti-Fc Ab) at 200 RU; regeneration with Gly-HCl pH 2; data of the 1:2 (bivalent) model reported
[2] = target: T1, TNFR1 fused to the Fc portion of an IgG …; test: SPR; stoichiometry evaluation at different receptor densities (anti-Fc Ab immobilized on C1, CM4 and CM5 chips)
NGR-hTNF = NGR-hTNF (human); test: crystal structure; tetragonal crystals from 2.8 M MgSO4, 1 M NaCl, 0.1 M MES pH 6.0; data at 100 K; 2.65 Å
Chain of NGR-hTNF (chain, as listed by the source): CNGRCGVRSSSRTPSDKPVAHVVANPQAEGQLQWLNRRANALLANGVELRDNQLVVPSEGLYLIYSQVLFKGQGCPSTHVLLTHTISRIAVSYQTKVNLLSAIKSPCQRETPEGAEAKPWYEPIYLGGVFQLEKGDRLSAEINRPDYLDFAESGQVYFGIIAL

[3] = target: T2, TNFR2 fused to the Fc portion of an IgG molecule (UniProt P20333 23-257); test: SPR; standard kinetics: NGR-hTNF or hTNF 0.6–83 nM injected in duplicates over TNFR1 and TNFR2 (Fc fusions on immobilized anti-Fc Ab) at 200 RU; regeneration with Gly-HCl pH 2; data of the 1:2 (bivalent) model reported
[4] = target: T2, TNFR2 fused to the Fc portion of an IgG …; test: SPR; stoichiometry evaluation at different receptor densities (anti-Fc Ab immobilized on C1, CM4 and CM5 chips)

Kd [1]: 3.6 nM | koff1 [1]: 0.00158 s⁻¹ | koff2 [1]: 0.00119 s⁻¹ | kon1 [1]: 468000 M⁻¹ s⁻¹ | kon2 [1]: 0.00429 RU^−1·s^−1 | t1/2 1 [1]: 7.4 min | t1/2 2 [1]: 9.9 min | stoichiometry N [2]: 3 receptors per cytokine trimer and 2 receptors per cytokine trimer
B1: NGR-hTNF (ligand)
chain: not shown
modifications: homotrimer; CNGRC motif presumably cyclised by a Cys1-Cys5 disulfide; native TNF disulfide / extracellular domain by convention; IgG Fc carrier left out (two copies assumed from Fc dimerisation) …

stoichiometry N (NGR-hTNF): 3
B2: NGR-hTNF (ligand)
chain: not shown
modifications: homotrimer; CNGRC motif presumably cyclised by a Cys1-Cys5 disulfide; native TNF disulfide / homotrimer; CNGRC motif presumably cyclised by a Cys1-Cys5 disulfide; native TNF disulfide

Kd [3]: 57 nM | koff1 [3]: 0.0336 s⁻¹ | koff2 [3]: 0.00039 s⁻¹ | kon1 [3]: 588000 M⁻¹ s⁻¹ | kon2 [3]: 0.00054 RU^−1·s^−1 | t1/2 1 [3]: 0.3 min | t1/2 2 [3]: 29.4 min | stoichiometry N [4]: 2 receptors per cytokine trimer and 3 receptors per cytokine trimer
B3: NGR-hTNF (ligand)
chain: not shown
modifications: homotrimer; CNGRC motif presumably cyclised by a Cys1-Cys5 disulfide; native TNF disulfide

Several values for one entry are separate records, joined by “and”; a condition that tells them apart may be missing. Equal entries are not always repeated. Each block holds one binder with its values, some of them ahead of it.
